B1: PhoQ; a variant is named by its letters at X, in order, P23837 (parent)
chain: MKKLLRLFFPLSLRVRFLLATAAVVLVLSLAYGMVALIGYSVSFDKTTFRLLRGESNLFYTLAKWENNKLHVELPENIDKQSPTMTLIYDENGQLLWAQRDVPWLMKMIQPDWLKSNGFHEIEADVNDTSLLLSGDHSIQQQLQEVREDDDDAEMTHSVAVNVYPATSRMPKLTIVVVDTIPVELKSSYMVWSWFIYVLSANLLLVIPLLWVAAWWSLRPIEALAKEVRELEEHNRELLNPATTRELTSLVRNLNRLLKSERERYDKYRTTLTDLTHSLKTPLXXLQXXLRSLRSEKMSVSDAEPVMLEQISRISQQIGYYLHRASMRGGTLLSRELHPVAPLLDNLTSALNKVYQRKGVNISLDISPEISFVGEQNDFVEVMGNVLDNACKYCLEFVEISARQTDEHLYIVVEDDGPGIPLSKREVIFDRGQRVDTLRPGQGVGLAVAREITEQYEGKIVAGESMLGGARMEVIFGRQHSAPKDE

Some of the results follow.

This test covers variants of B1. Kind of test: enrichment ratio after two sorts for PhoP signalling (ratio (wild type AVST 3.29)); higher = more functional. The settings on record: with PhoP (E. coli).
For VYTS, the enrichment ratio is not above 0.25.
Regarding ITGV, the enrichment ratio was not above 0.25.
With ILLQ the figure was not above 0.25.
Then YAVK, with not above 0.25; and PALW, with not above 0.25; and QPAV, with not above 0.25.
Then KECG, with not above 0.25.
For VWWP, the enrichment ratio was not above 0.25.
Then LFCI, with not above 0.25; and DLYQ, with not above 0.25; and DQSV, with not above 0.25.
MRDQ: the enrichment ratio was not above 0.25.
IGTP: the enrichment ratio was not above 0.25.
Then FRLC, with not above 0.25; and QLVW, with not above 0.25; and VPYS, with not above 0.25.
Then PRWS, with not above 0.25; and GRSR, with not above 0.25; and TNMY, with not above 0.25.
With SKRF the figure was not above 0.25.
With TCPP, the enrichment ratio is not above 0.25.
Then VRSF, with not above 0.25; and LGRP, with not above 0.25.
With HASD the figure was not above 0.25; with NQWC, not above 0.25.
With AWII the figure was not above 0.25.
TGPS: the enrichment ratio is not above 0.25.
With YFSG the figure was not above 0.25; with LINT, not above 0.25.
For the variant WQCS, the enrichment ratio was not above 0.25.
Then DWCQ, with not above 0.25; and DWYY, with not above 0.25; and SDCC, with 8.06.
As to IGST, the enrichment ratio was not above 0.25.
Regarding PNAH, the enrichment ratio was not above 0.25.
Take ICKW: the enrichment ratio was not above 0.25.
Then SGQV, with 7.41; and HHML, with not above 0.25.
Then VWAQ, with not above 0.25; and SVDV, with not above 0.25; and RYRY, with not above 0.25.
Then YHTQ, with not above 0.25; and KHTR, with not above 0.25.
In the case of QKDI, the enrichment ratio was not above 0.25.
With EAYS the figure was not above 0.25; with IRHT, not above 0.25; with NEEF, not above 0.25.
Then DGLC, with not above 0.25; and GHWR, with not above 0.25.
For the variant NMMW, the enrichment ratio is not above 0.25.
With TGHD the figure was not above 0.25; with YLPQ, not above 0.25; with MMLN, not above 0.25.
With LWYP the figure was not above 0.25; with MQGC, not above 0.25.
On to HKII, for which the enrichment ratio was not above 0.25.
Then PIRN, with not above 0.25; and HTCL, with not above 0.25; and EIPD, with not above 0.25.
Consider VGSD, for which the enrichment ratio is not above 0.25.
Take GKFV: the enrichment ratio is not above 0.25.
Regarding MHST, the enrichment ratio was not above 0.25.
With FFYG the figure was not above 0.25; with PRGF, not above 0.25.
With VWPN, the enrichment ratio is not above 0.25.
On to LYHV, for which the enrichment ratio was not above 0.25.
Then VALW, with not above 0.25; and HMGK, with not above 0.25; and DLSI, with not above 0.25.
With MMAK the figure was not above 0.25; with IPPP, not above 0.25; with TKWW, not above 0.25.
With HYKR the figure was not above 0.25.
Consider SPQP, for which the enrichment ratio is not above 0.25.
Consider IDRY, for which the enrichment ratio was not above 0.25.
Then NPYQ, with not above 0.25; and LCHE, with not above 0.25.
Then PFGW, with not above 0.25.
With DMTV the figure was not above 0.25; with CAIY, not above 0.25.
On to MFPI, for which the enrichment ratio was not above 0.25.
With WLYS, the enrichment ratio was not above 0.25.
Then IDPG, with not above 0.25; and GMDG, with not above 0.25; and YVQP, with not above 0.25.
Then DVGI, with not above 0.25; and YVHF, with not above 0.25.
Take ALMQ: the enrichment ratio was 2.62.
With SRTC the figure was not above 0.25.
Consider WWYA, for which the enrichment ratio was not above 0.25.
TDVH: the enrichment ratio is 10.9.
With KTMD the figure was not above 0.25.
With WTMV the figure was not above 0.25; with HGNW, not above 0.25.
Then MCMT, with not above 0.25; and WGGY, with not above 0.25; and YDWP, with not above 0.25.
Regarding ELKM, the enrichment ratio is not above 0.25.
With ISAS the figure was not above 0.25.
Then AHKH, with not above 0.25; and LWVG, with not above 0.25; and RYHD, with not above 0.25.
On to VWMK, for which the enrichment ratio is not above 0.25.
Then VICT, with not above 0.25.
With PRDN the figure was not above 0.25.
As to TMQH, the enrichment ratio worked out at 4.24.
Consider ITMC, for which the enrichment ratio is not above 0.25.
With VQCK the figure was not above 0.25; with GKCY, not above 0.25.
Then DEVC, with not above 0.25; and PQAR, with not above 0.25.
On to GCFY, for which the enrichment ratio was not above 0.25.
As to NFAN, the enrichment ratio is not above 0.25.
With QVKF the figure was not above 0.25.
In the case of HPES, the enrichment ratio is not above 0.25.
In the case of RPTA, the enrichment ratio was not above 0.25.
Then FDYL, with not above 0.25; and VQLC, with not above 0.25.
With AWHC the figure was not above 0.25; with YFRC, not above 0.25; with KAHI, not above 0.25.
Then TIFA, with not above 0.25.
As for FKHG, the enrichment ratio was not above 0.25.
In the case of HHES, the enrichment ratio is not above 0.25.
Then FSHG, with not above 0.25.
With TFNM the figure was not above 0.25.
Then KYKT, with not above 0.25; and WTRR, with not above 0.25; and KKKI, with not above 0.25.
As for QKMI, the enrichment ratio was not above 0.25.
With DLWC the figure was not above 0.25.
Then MIHF, with 3.77; and QLFP, with not above 0.25; and TSWV, with 11.
Then LRRK, with not above 0.25; and IVYP, with not above 0.25.
In the case of ACSG, the enrichment ratio worked out at 12.3.
With QDGA the figure was not above 0.25; with RDKP, not above 0.25.
With MMIM the figure was not above 0.25.
As for WYSQ, the enrichment ratio is not above 0.25.
Then ACTV, with 8.69; and MMVS, with not above 0.25; and ASPS, with not above 0.25.
Then WHNN, with not above 0.25; and DTKY, with not above 0.25; and RTER, with not above 0.25.
Regarding NGGH, the enrichment ratio is not above 0.25.
Then FAAH, with not above 0.25.
With DMEY the figure was not above 0.25.
With PTGY the figure was not above 0.25.
With MHPR, the enrichment ratio is not above 0.25.
With MKGS the figure was 2.48.
Then DTIR, with not above 0.25.
Then YRMK, with not above 0.25.
Consider QDID, for which the enrichment ratio was not above 0.25.
Then FRER, with not above 0.25.
Then TGAN, with 2.47; and PTQD, with not above 0.25; and FRIA, with not above 0.25.
With CIVS the figure was not above 0.25.
For the variant PTSL, the enrichment ratio is not above 0.25.
With SALH the figure was 10.3; with TYEY, not above 0.25; with YQNL, not above 0.25.
Then LAVT, with not above 0.25; and LLGI, with not above 0.25; and SMTR, with 0.844.
With PQYW the figure was not above 0.25.
Take ECHG: the enrichment ratio is not above 0.25.
Take TNYQ: the enrichment ratio was not above 0.25.
In the case of AFAY, the enrichment ratio is not above 0.25.
For VPRW, the enrichment ratio was not above 0.25.
Then VFKF, with not above 0.25; and QFNY, with not above 0.25.
Then YSDL, with not above 0.25.
Then GVGC, with not above 0.25; and KDRN, with not above 0.25.
In the case of ATAA, the enrichment ratio is not above 0.25.
With GGAD the figure was not above 0.25; with DMDL, not above 0.25.
With YASA the figure was not above 0.25; with QWPT, not above 0.25; with GRPN, not above 0.25.
Then PLDC, with not above 0.25; and VAMR, with not above 0.25.
Consider GSTI, for which the enrichment ratio came out at 12.2.
Then HKHN, with not above 0.25; and SGMT, with 6.68.
Then DACM, with not above 0.25.
Turning to IAKG, the enrichment ratio is not above 0.25.
Then IPYT, with not above 0.25; and GELW, with not above 0.25.
Regarding SHMA, the enrichment ratio was not above 0.25.
With GQKC the figure was not above 0.25.

Source of the values: a collection of fitness landscapes (doi:10.1126/science.1257360).
